Results taken from patent US20250197490A1, “ANTI-CORTICOTROPIN-RELEASING HORMONE ANTIBODIES AND USE IN CONGENITAL ADRENAL HYPERPLASIA” (HBM ALPHA THERAPEUTICS, INC., priority 2021, published 2025).

T1: CRH (Homo sapiens, UniProt P06850)
T1 construct: CRH is a 41-amino acid peptide derived by enzymatic cleavage from a 196-amino acid preprohormone
T1 sequence (P06850 154-194): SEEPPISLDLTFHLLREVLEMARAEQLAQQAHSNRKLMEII


Key:
[1] = tested on: human CRHR1; assay: CRH-induced luciferase reporter blocking in CHO-CRE-hCRHR1 cells; assay type: cell-based; conditions: in words
Procedure: To generate a CHO-CRE-Luciferase Reporter stable cell line, a mixture of 2 million CHO-K1 cells with 10 μg of pGL4.29/luc2P/CRE/Hygro plasmid in 100 μl of Ingenio solution was transferred into electroporation cuvettes and subjected to 1 or 2 pulses using an Electro Cell Manipulator (950 uF and 120V). The processed cells were transferred into a 6-well plate with 2 mL of Dulbecco's Modified Eagle's Medium (DMEM)/F12 with 10% fetal bovine serum (FBS). After 24 hours, selection antibiotic hygromycin at 500 μg/ml was added to the cells. […] Using matrix dilution, the pool of CHO-CRE cells was subcloned into 96-well plates. Individual stable clones were harvested when selected colonies became obvious. Positive clones were validated using a series of diluted forskolin. Validated positive clones were frozen for the future use.
To create CHO-CRE-hCRHR1,-hCRHR2,-mCRHR1, and -mCRHR2 reporter cell lines, pcDNA3.1-hCRHR1,-hCRHR2,-mCRHR1, and -mCRHR2 were introduced into CHO-CRE cells established above by electroporation as described above. Selection antibiotics hygromycin at 500 μg/ml and G418 at 1,000 μg/ml were employed. […]
50 μl of 4× serially diluted antibodies was added (8 points, ¼ diluted by growth medium) to plates containing CHO-CRE-hCRHR1 cells, and 50 μl of 4×CRH (4× is 2 nM, final is 0.5 nM) was added. […] Plates were read in a luciferase plate reader (En Vision, PerkinElmer).

[2] = molecular target: T1, CRH; assay: CRH ELISA binding (NT-biotin / CT-biotin CRH); conditions: in words
Procedure: ELISA plates were coated with 5 μg/ml streptavidin in phosphate buffered saline (PBS) (Sigma 189730-1 mg) at 4° C. overnight or at room temperature (RT) for 2 hours. 50 μl/well was used for 96-well plates, or less for 384-well plates. After incubation, the strepavidin solution was removed and biotinylated peptide was added (ThermoFisher, biotin is at the N terminus of the peptide). Following incubation for 30 min at RT, plates were washed with 1× phosphate buffered saline (PBS)/0.1% Tween-20 and blocked with 1% milk/1% bovine serum albumin (BSA) in washing solution. Following a wash in 3×PBS/0.1% Tween-20, 50 μl of antibody was added in blocking buffer and incubated at RT for 2 hours. Plates were then washed in 3×PBS/0.1% Tween-20, and 50 μl of anti-rat IgG-HRP (horseradish peroxidase) at a 1:2,000 dilution was added and incubated at RT for 2 hours. Following a wash in 3×PBS/0.1% Tween-20, 50 μl peroxidase substrate (POD or equivalent) was added and absorbance was measured at 450 nm.
Streptavidin (Thermo, Cat: 21125) was diluted in PBS to a concentration of 2 μg/ml. […] 100 μL of ELISA stopping solution (Solarbio, Cat #: C1058) was added to terminate the reaction, and the optical density at 450 nm (OD450 nm) was determined by an ELISA plate reader (Molecular Devices, Spectra max 384 plus).

[3] = tested on: wildtype female C57BL/6 mice; assay: Wildtype mice restraint-stress model (ACTH and corticosterone); assay type: in vivo, mouse; conditions: mAb 20 mg/kg IP
Procedure: 8-10 week old wildtype female C57BL/6 mice were obtained from Charles River Laboratories. Mrap1 KO mice were obtained from Queen Mary University of London, UK. SSR125543A, a small molecule CRHR1 antagonist, was obtained from Axon Medchem (Cat #Axon 1799). Mouse Corticosterone (55-Corms-E01) and adrenocorticotropic hormone (ACTH) ELISA kits (21-ACTHU-E01) were obtained from ALPCO, USA. All procedures were carried out in accordance with the Guide for the Care and Use of Laboratory Animals of the National Institutes of Health. Protocols were approved by Charles River Laboratories Institutional Animal Care and Use Committee (IACUC).
To determine the effect of nonpainful physical restraint upon stress responses, mice were restrained in 50 ml polypropylene ventilated tubes in which the tip was cut off with a razor blade to allow the mouse to breathe easily for 15-20 minutes. A mouse was directed to the open tube and crawled in. A piece of paper towel was put behind the mouse so that it could not back out, and the cap was screwed on. The mouse was placed back in its cage, ventral size down on the bedding. This stressor is not considered painful, as mice are confined to a limited space (in a ventilated restraint tube) but not in an unnatural physical position. The investigator was present in the room during the entire procedure. At the end of the procedure, the mouse was removed by the tail. […]

[4] = tested on: Mrap1 KO mice; assay: Mrap1 KO mice constitutively high ACTH model; assay type: in vivo, mouse; conditions: single dose of mAb 20 mg/kg

| ELISA binding activities to CRH [2] | Molecule | plasma ACTH concentration in Mrap1 KO mice [4] | further results |
| --- | --- | --- | --- |
|  | PR004289: Series 1 anti-CRH mAb, human IgG1 wildtype Fc, IGHV3-7/IGKV2-28 (antibody) heavy: EVQLVESGGVLVQPGGSLRLSCAASGFIFSSYWMTWVRQAPGKGLEWVANIKQDGSEKYYVDSVKGRFTISRDNAKNSLFLQMNSLRAEDTAVYYCARTLIFDYWGQGTLVTVSS[human IgG1 constant region cut from this listing] light: DIVMTQSPLSLPVTPGEPASISCRSSQSLLHSTGYNSLEWYLQKPGQSPQLLIYLGSNRASGVPDRFSGSGSGTDFTLKISRVEAEDVGIYYCMQTLQTPITFGQGTRLEIKRTVAAPSVFIFPPSDEQLKSGTASVVCLLNNFYPREAKVQWKVDNALQSGNSQESVTEQDSKDSTYSLSSTLTLSKADYEKHKVYACEVTHQGLSSPVTKSFNRGEC |  | blocking activity in human CRHR1 luciferase reporter assay (CRH-mediated luciferase expression) [1]: blocking activity |
| somewhat weaker | PR006746: ΔPTM variant of PR006669 (antibody) heavy: EVQLVESGGGLVQPGGSLRLSCAASGFTFSDNWMSWVRQAPGKGLEWVANIKQDSSENYYVDSVKGRFTISRDNAKNSLYLQMNSLRAEDTAVYYCSRGLALWGWGQGTLVTVSS[human IgG1 constant region cut from this listing] light: DIVMTHSPLSLPVTPGDPASISCRSSQSLLHSTGYNYLDWYLQKPGQSPQLLIYLGSNRASGVPDRFSGSGSGTDFTLKFIRVEAEDVGVYYCMQALQTPYTFGQGTKLEIKRTVAAPSVFIFPPSDEQLKSGTASVVCLLNNFYPREAKVQWKVDNALQSGNSQESVTEQDSKDSTYSLSSTLTLSKADYEKHKVYACEVTHQGLSSPVTKSFNRGEC |  |  |
| somewhat weaker | PR006745: ΔPTM variant of PR006669 (antibody) heavy: EVQLVESGGGLVQPGGSLRLSCAASGFTFSDNWMSWVRQAPGKGLEWVANIKQDASENYYVDSVKGRFTISRDNAKNSLYLQMNSLRAEDTAVYYCSRGLALWGWGQGTLVTVSS[human IgG1 constant region cut from this listing] light: DIVMTHSPLSLPVTPGDPASISCRSSQSLLHSTGYNYLDWYLQKPGQSPQLLIYLGSNRASGVPDRFSGSGSGTDFTLKFIRVEAEDVGVYYCMQALQTPYTFGQGTKLEIKRTVAAPSVFIFPPSDEQLKSGTASVVCLLNNFYPREAKVQWKVDNALQSGNSQESVTEQDSKDSTYSLSSTLTLSKADYEKHKVYACEVTHQGLSSPVTKSFNRGEC |  |  |
|  | PR006152: Series 1 anti-CRH mAb (antibody) heavy: EVQLVESGGVLVQPGGSLRLSCAASGFTFSSYWMTWVRQAPGKGLEWVANIKQDSSEKYYVDSVKGRFTISRDNAKNSLFLQMNSLRAEDTAVYYCARTLIFDYWGQGTLVTVSS[human IgG1 constant region cut from this listing] light: DIVMTQSPLSLPVTPGEPASISCRSSQSLLHSTGYNPLEWYLQKPGQSPQLLIYLGSNRASGVPDRFSGSGSGTDFTLKISRVEAEDVGIYYCMQTLQTPITFGQGTRLEIKRTVAAPSVFIFPPSDEQLKSGTASVVCLLNNFYPREAKVQWKVDNALQSGNSQESVTEQDSKDSTYSLSSTLTLSKADYEKHKVYACEVTHQGLSSPVTKSFNRGEC |  | restraint-induced ACTH concentration [3]: markedly inhibited; restraint-induced corticosterone concentration [3]: markedly inhibited |
|  | PR302341-55: Series 10 mAb, PTM-removed humanized variant, scaled up for in vivo studies (protein) heavy chain: QVQLVQSGAEVKKPGASVKVSCKASGYTFTDYFMKWVRQAPGQRLEWMGVINPNNADIFYNQKFKGRVTITRDTSASTAYMELSSLRSEDTAVYYCARGTDRALFAYWGQGTLVTVSS[human IgG1 constant region cut from this listing] light chain: DVVMTQSPLSLPVTLGQPASISCRSGQSIVHSDGNTYLEWYQQRPGQSPRLLIYKVSNRFSGVPDRFSGSGSGTDFTLKISRVEAEDLGVYYCFQGSHIPWTFGGGTKVEIKRTVAAPSVFIFPPSDEQLKSGTASVVCLLNNFYPREAKVQWKVDNALQSGNSQESVTEQDSKDSTYSLSSTLTLSKADYEKHKVYACEVTHQGLSSPVTKSFNRGEC | markedly reduced |  |
|  | PR302341-60: Series 10 mAb, PTM-removed humanized variant, scaled up for in vivo studies (protein) heavy chain: QVQLVQSGAEVKKPGASVKVSCKASGYTFTDYFMKWVRQAPGQRLEWMGVINPNQGDIFYNQKFKGRVTITRDTSASTAYMELSSLRSEDTAVYYCARGTDRALFAYWGQGTLVTVSS[human IgG1 constant region cut from this listing] light chain: DVVMTQSPLSLPVTLGQPASISCRSGQSIVHSDANTYLEWYQQRPGQSPRLLIYKVSNRFSGVPDRFSGSGSGTDFTLKISRVEAEDLGVYYCFQGSHIPWTFGGGTKVEIKRTVAAPSVFIFPPSDEQLKSGTASVVCLLNNFYPREAKVQWKVDNALQSGNSQESVTEQDSKDSTYSLSSTLTLSKADYEKHKVYACEVTHQGLSSPVTKSFNRGEC | markedly reduced |  |
